Here are results for 84 molecules from PubChem BioAssay AID1645887 (National Center for Advancing Translational Sciences (NCATS), 2021).

“And” between values parts separate entries of the source, which are not always exact repeats. Equal values may be shown once. Among all 16,000 compounds or so, about 40 (0.2%) were called active. About 1% were inconclusive and are not listed. Calls follow the shape of the dose curve; as a rule, active = well fitted activation curve with a large enough effect; inconclusive = small, poorly fitted or top-dose-only effect, or another doubt; inactive = no such curve, though single readings can be large or run the other way. The list shows a part of the results.
% is scaled to controls: 0 for no effect and ±100 for the full control effect.

UniProt Q8WZA2, sequence (Q8WZA2 whole entry, looked up): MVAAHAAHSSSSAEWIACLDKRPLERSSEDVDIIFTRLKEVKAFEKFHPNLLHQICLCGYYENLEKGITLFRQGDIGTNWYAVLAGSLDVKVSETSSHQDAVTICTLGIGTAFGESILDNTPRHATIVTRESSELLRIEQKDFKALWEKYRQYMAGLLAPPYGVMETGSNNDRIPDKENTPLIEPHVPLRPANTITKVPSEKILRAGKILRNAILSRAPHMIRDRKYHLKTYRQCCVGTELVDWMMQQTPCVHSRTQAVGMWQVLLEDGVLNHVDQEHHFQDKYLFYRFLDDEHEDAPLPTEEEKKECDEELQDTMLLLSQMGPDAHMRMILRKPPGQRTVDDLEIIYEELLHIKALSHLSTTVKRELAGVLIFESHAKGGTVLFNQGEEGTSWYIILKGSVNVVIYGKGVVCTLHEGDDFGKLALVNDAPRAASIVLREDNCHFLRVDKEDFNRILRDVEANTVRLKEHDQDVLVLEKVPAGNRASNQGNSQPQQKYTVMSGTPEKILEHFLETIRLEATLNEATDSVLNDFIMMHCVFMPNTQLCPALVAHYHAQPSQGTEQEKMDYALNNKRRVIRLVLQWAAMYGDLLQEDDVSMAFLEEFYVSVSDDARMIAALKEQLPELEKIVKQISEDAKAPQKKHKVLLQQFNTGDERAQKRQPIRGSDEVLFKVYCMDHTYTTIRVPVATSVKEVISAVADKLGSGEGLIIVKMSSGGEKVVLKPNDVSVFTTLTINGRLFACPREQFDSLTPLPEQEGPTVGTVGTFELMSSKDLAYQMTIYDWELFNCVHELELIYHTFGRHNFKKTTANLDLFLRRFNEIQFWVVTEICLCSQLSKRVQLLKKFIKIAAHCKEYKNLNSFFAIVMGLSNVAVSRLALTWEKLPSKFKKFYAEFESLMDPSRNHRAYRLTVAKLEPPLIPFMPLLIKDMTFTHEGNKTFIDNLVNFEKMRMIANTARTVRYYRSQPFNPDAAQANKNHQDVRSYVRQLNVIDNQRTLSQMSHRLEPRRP

In the assay the target is Rap guanine nucleotide exchange factor 4 (Homo sapiens) (UniProt Q8WZA2). Briefly: Validation qHTS for agonist of cAMP-regulated guanine nucleotide exchange factor 4 (EPAC2).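 Also: exchange makes BODIPY-GDP fluorescence drop when released from Rap1B; series mostly up to about 150 µM.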 To be noted: EPAC2 Rap1B BODIPY-GDP exchange, fluorescence; activation: hits give high values. Summed up:
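Fluorescent exchange assay: 100 nM EPAC2 with 250 nM RAP1B-BODIPY-GDP and 50 uM GDP; compound added, 5 min at room temperature, then read (ex 480/em 540 nm) every 5 min for 30 min. Normalized to 6.5 mM cAMP agonist control.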
Turning to `O=C(NCC1Cc2cccc(-c3cnccn3)c2O1)c1ccc2c(c1)OCCO2` (centres undefined), the activation is inactive: -1.91%.
`Cc1c(C(=O)NCCN2CCOCC2)cnn1-c1nccc(-c2cc3ccccc3o2)n1`: the activation is inactive: 1.85%.
As for `COc1cccc(-c2ccnc(-n3ncc(C(=O)NCC4(N5CCCCC5)CCCC4)c3C)n2)c1`, the activation is inactive: -6.78%.
In the case of `Cc1ccc2c(c1)CN(CCNC(=O)c1cc3ccccc3oc1=O)CC(C)O2` (centres undefined), the activation was inactive: -23.9%.
Turning to `CCCN1CCC(=O)N([C@H](CO)c2ccccc2)CC1`, the activation is inactive: -37.7%.
With `O=C(Nc1ccc([N+](=O)[O-])cc1)Nc1ccc([N+](=O)[O-])cc1`, the activation was inactive: -1.58%.
Regarding `CCCCCCCCCCCC1=C(O)C(=O)C=C(O)C1=O`, the activation is inactive: -14.9% and inactive: -42.5% and inactive: -33.1%.
For `CC(=O)Nc1ccc(OCCOCCOc2ccc(NC(C)=O)cc2)cc1`, the activation is inactive: -26.4%.
The figure for `CC(C)NC(=O)N1CCCC2(CCN(C(=O)c3cccc(F)c3)CC2)C1` is inactive: -15.3%; for `CC(=O)NCCNc1nc(-c2ccccc2Cl)nc2ccccc12` it is inactive: -18.6%.
On to `COCCn1c(=O)c(-c2ccccc2)nc2cncnc21`, for which the activation is inactive: 1.03%.
In the case of `COc1ccccc1C1CN(Cc2cnn(C)c2C)Cc2ccccc2O1` (centres undefined), the activation was inactive: -9.25%.
Take `CSC(N)=NCCC[C@H](N)C(=O)O`: the activation is inactive: -11.5%.
With `COc1ccc(-n2c(=O)c(-c3cccs3)nc3cnc(OC)nc32)cc1` the figure was inactive: -2.08%; with `Cc1cccc(CNc2ncnc3ccc(-c4cccc(C#N)c4)cc23)c1`, inactive: -1.23%; with `C[C@H]1CCC(=O)N([C@H](CSc2ccc(Br)cc2)Cc2ccccc2)CC1`, inactive: -11.7%.
The figure for `Cc1ccsc1C1Cc2c(C(=O)NCc3cccnc3)c(=O)cc(C)n2-c2ccccc2S1` (centres undefined) is inactive: -13.2%; for `CN1CCN(c2cc(-c3ccccc3C(F)(F)F)ncn2)CC1` it is inactive: 0.575%.
As for `C[C@H]1[C@H]2CC[C@H]3C4CC=C5C[C@@H](N(C)C)CC[C@]5(C)C4CC[C@]23CN1C` (some centres undefined), the activation was inactive: 9.8%.
For `O=C(c1ccccc1-n1cccn1)N1CCOc2c(cc(-c3ncc(C(F)(F)F)cc3Cl)cc2OCC2CCCO2)C1` (centres undefined), the activation was inactive: -13.4%.
Regarding `Cc1cnc(C)c(-c2cccc3c2OC(CNC(=O)CN2C(=O)c4ccccc4C2=O)C3)n1` (centres undefined), the activation was inactive: -9.97%.
Turning to `CCCCCOC(=O)Nc1nc(=O)n([C@@H]2O[C@H](C)[C@@H](O)[C@H]2O)cc1F`, the activation was inactive: -23.6%.
`Cc1nonc1CN(C)C(=O)C1CC12CCN(C(=O)/C=C/c1cccc(Cl)c1)CC2` (centres undefined): the activation is inactive: -2.13%.
For `C[N+](C)(CCCCCC[N+](C)(C)C1c2ccccc2-c2ccccc21)C1c2ccccc2-c2ccccc21`, the activation was inactive: -2.31%.
The figure for `O=C(Cn1cnnn1)N[C@@H]1C(=O)N2C(C(=O)O)=C(CSc3nncs3)CS[C@H]12` is inactive: 0.73% and inactive: 6.29%; for `COc1ccc(NC(=O)c2ccc(-c3ccc(-c4noc(C)n4)cc3C)cc2)cc1N1CCN(C)CC1` it is inactive: -35.6% and inactive: -60.6%; for `CCCCNc1ccc(C(=O)OCCN(C)C)cc1` it is inactive: -17.6% and inactive: 13.8% and inactive: -4.2%.
Turning to `CC(C)[N+]1(C)[C@@H]2CC[C@H]1CC(OC(=O)[C@@H](CO)c1ccccc1)C2` (some centres undefined), the activation is inactive: -18.3%.
`CN1CCOC(c2ccccc2)c2ccccc2C1` (centres undefined): the activation was inactive: -23.5% and inactive: -8.6%.
With `COc1cc2nc(N3CCCC(O)C3)c(CNCc3ccccc3F)cc2c(OC)c1OC` (centres undefined), the activation is inactive: -9.43%.
In the case of `CN(C)C(=O)OC1=C(c2ccccc2)Sc2ccccc2-n2cccc21`, the activation is inactive: -1.71%.
With `O=C(Oc1ccccc1)N1CCC2(CCCN(c3cccc(-c4ccccc4)c3)C2)CC1`, the activation was inactive: 7.82%.
For the molecule `COc1ccc(C(=O)N2CCC3(CC2)CN(c2ncccn2)C3)cc1`, the activation is inactive: -4.42%.
Regarding `Cc1cccc(C)c1OCC(N)C(C)C` (centres undefined), the activation is inactive: -27.9%.
For the molecule `CSc1ncccc1C(=O)NCC1Cc2cc(-c3cnccn3)cc(Cl)c2O1` (centres undefined), the activation was inactive: 5.39%.
Regarding `C[C@H](CSC(=O)c1ccccc1)C(=O)N1C[C@@H](Sc2ccccc2)C[C@H]1C(=O)O`, the activation is inactive: -5.99%.
On to `N#Cc1cccc(NC(=O)N2CCCC3(CCN(C(=O)c4cc(C(F)(F)F)cc(C(F)(F)F)c4)CC3)C2)c1`, for which the activation was inactive: -15.8%.
With `CC1CCC(C(C)C)[C@H](O)C1` (some centres undefined) the figure was inactive: -15.2%; with `COCC(=O)N1CCC2(CC1)CN(c1ccc(-c3ccccc3)cc1)C2`, inactive: 7.7%.
With `COC(=O)c1ccccc1-c1cc(C)cc2c1OC(CNC(=O)c1ccn(C)n1)C2` (centres undefined), the activation was inactive: -16.5%.
On to `CN1CCC(=C2c3ccccc3CCc3sccc32)CC1`, for which the activation was inactive: -29.5% and inactive: -28.6%.
Regarding `Cc1cnc(CNc2ncnc3ccc(-c4ccccc4Cl)cc23)cn1`, the activation is inactive: 4.55%.
For `N=c1ccn2c(n1)OCC1C2O[C@@H](O)[C@H]1O` (some centres undefined), the activation is inactive: -22.2%.
Turning to `O=C(OC1Cc2c(O)cc(O)cc2OC1c1cc(O)c(O)c(O)c1)c1cc(O)c(O)c(O)c1` (centres undefined), the activation was inactive: -4.39%.
With `COc1cccc(CNC(=O)c2c(OC)cc(=O)n3c2CCN(C(=O)c2ccccc2Cl)CC3)c1`, the activation is inactive: -4.53%.
For `OCC(O)CS` (centres undefined), the activation was inactive: -10.5%.
The figure for `CCc1ccc2c(O)c3c(cc2c1C(=O)OC)C(=O)c1c(O)ccc(O)c1C3=O` is inactive: -1.19%; for `CN1CC(O)C2=CC(=O)C(=O)C=C21` (centres undefined) it is inactive: -25.5%; for `COC(=O)[C@@H]1CCCN1Cc1ccc2c(c1)CN(Cc1ccccc1)CCO2` it is inactive: -9.31%.
Take `O=C(Cc1ccccc1)Nc1nc2ccc(Cl)cc2c2nc(-c3ccco3)nn12`: the activation was inactive: -27.8% and inactive: -12.4%.
With `CC(C)NC[C@H](O)COc1cccc2[nH]ccc12` the figure was inactive: -18% and inactive: 8.75% and inactive: -22.2%; with `COc1ccc2c(c1)OC(C)(C)C(c1ccccc1)C2c1ccc(OCCN2CCCC2)cc1` (centres undefined), inactive: 10.9%; with `CC(C)CN1CCCC2(CCN(C(=O)c3csnn3)CC2)C1`, inactive: -2.35%.
As to `CC(=O)Nc1ccc(SCCN2CC[C@@H](O)CCC2=O)cc1`, the activation is inactive: -14.4%.
Consider `CC(C)NCC1CCc2cc(CO)c([N+](=O)[O-])cc2N1` (centres undefined), for which the activation is inactive: -17.1%.
Turning to `COCCn1c(=O)c(-c2cccc(C#N)c2)nc2cnc(N(C)C)nc21`, the activation is inactive: -11.5%.
For the molecule `Cc1cnc(C(=O)NCCc2ccc(S(=O)(=O)NC(=O)NC3CCCCC3)cc2)cn1`, the activation was inactive: -5.76% and inactive: 4.74% and inactive: -16.6%.
Turning to `Cc1nc(C(C)NC2CCN(c3cccc(NC(=O)c4ccncc4)c3)CC2)cs1` (centres undefined), the activation is inactive: 1.39%.
As to `O=C1[C@H](CC[C@H](O)c2ccc(F)cc2)[C@@H](c2ccc(O)cc2)N1c1ccc(F)cc1`, the activation was inactive: 9.77%.
In the case of `COc1ccccc1CN1CCC(n2cc(C(=O)N3CCCCC3)nn2)CC1`, the activation is inactive: -9.1%.
For `CC(C)=CCC1=C(O)c2ccccc2C(=O)C1=O`, the activation was inactive: -10.2% and inactive: -29.1%.
As for `CC(C)c1cc(C(=O)N2CCOc3ccc(CN4CCC(Oc5cccnc5)CC4)cc3C2)n[nH]1`, the activation was inactive: -9.24%.
The figure for `COc1ccc(OC)c(-c2ccnc(-n3ncc(C(=O)NC(C)(C)CO)c3C3CC3)n2)c1` is inactive: -46.8%; for `CC(=O)OC1CCC2(C)C3CC(=O)C4(C)C(CC5OC6(CCC(C)CO6)C(C)C54)C3CC[C@H]2C1` (some centres undefined) it is inactive: -13.5%.
As for `COc1ccccc1OCC1CNC(=O)O1` (centres undefined), the activation was inactive: -8.73%.
With `COC(=O)C1CCCCN1Cc1ccc2c(c1)CN(C(=O)c1csc(-c3cccs3)n1)CCO2` (centres undefined) the figure was inactive: -8.89%; with `O=S(=O)(O)c1cc(I)c(O)c2ncccc12`, inactive: 0.219%; with `c1cc2c3c(c1)c1c(n3CCNC2)CCCC1`, inactive: 6.46%.
Take `O=C(NC(c1cccnc1)C(F)(F)F)c1cnn(-c2nccc(-c3cccs3)n2)c1C1CC1` (centres undefined): the activation was inactive: 4.02%.
`Cc1cc2nccc(/C=C/c3ccc(N(C)C)cc3)c2cc1C`: the activation is inactive: -14.9%.
For `COc1cccc(Nc2ncc3nc(-c4cc(F)cc(F)c4)c(=O)n(C[C@H]4CCCO4)c3n2)c1`, the activation was inactive: 3.07%.
With `COc1ccc(Oc2ncc3nc(-c4cccs4)c(=O)n(Cc4cccc(OC)c4)c3n2)cc1` the figure was inactive: -3.58%; with `Cc1nc2cnc(Nc3ccccc3)nc2n(CCC#N)c1=O`, inactive: 9.65%.
For the molecule `COc1cccc(-c2cc(NCc3ccc(OC)cc3OC)ncn2)c1`, the activation was inactive: -2.55%.
Turning to `O=C(Nc1cccc(F)c1)N1CCCC2(CCN(C(=O)c3ccco3)CC2)C1`, the activation was inactive: 0.776%.
With `COc1ccc2[nH]cc(CCNc3ncnc4ccc(-c5ccc6c(c5)OCO6)cc34)c2c1`, the activation is inactive: -12.4%.
For the molecule `COc1ccc(NC(=O)N2CC3(CCNCC3)C2)cc1`, the activation is inactive: 5.67%.
The figure for `CC(=O)Oc1ccc(C2(c3ccc(OC(C)=O)cc3)C(=O)Nc3ccccc32)cc1` is inactive: -14.4% and inactive: -25.5%.
Regarding `COc1ccccc1N1CCN(CCCCNC(=O)c2ccc3ccccc3c2)CC1`, the activation is inactive: 9.76%.
For the molecule `CCC1NC(=O)c2cc(S(N)(=O)=O)c(Cl)cc2N1` (centres undefined), the activation was inactive: -3.98%.
Regarding `COc1ccc(CN2CCC(=O)N(CCO)CC2)cc1OC`, the activation is inactive: 3.19%.
For `Cc1ncc(COP(=O)(O)O)c(C=O)c1O`, the activation is inactive: -7.62%.
As to `CN(C)C(=O)c1ccc(-c2cncnc2NCCN2CCOCC2)cc1`, the activation is inactive: -21.1%.
For `Brc1cc(Br)c[n+](CCc2ccccc2)c1`, the activation is inactive: -26%.
